# Test results from PubChem BioAssay AID1030 (National Center for Advancing Translational Sciences (NCATS), 2008).
# Hit rate of the full screen: of about 220,000 compounds, about 16,000 (7.3%) were called active. This list was built around the results that the source calls inconclusive (neither active nor inactive); the mix of calls is not that of the screen. Calls follow the shape of the dose curve; as a rule, active = well fitted inhibition curve with a large enough effect (not every such curve was filed as active); inconclusive = small, poorly fitted or top-dose-only effect, or another doubt; inactive = no such curve, though single readings can be large or run the other way. Potencies of inconclusive entries are left out as doubtful fits.
# Molecular target: Aldehyde dehydrogenase 1A1 (Homo sapiens) (UniProt P00352)
# Sequence of UniProt P00352 (P00352 whole entry, looked up): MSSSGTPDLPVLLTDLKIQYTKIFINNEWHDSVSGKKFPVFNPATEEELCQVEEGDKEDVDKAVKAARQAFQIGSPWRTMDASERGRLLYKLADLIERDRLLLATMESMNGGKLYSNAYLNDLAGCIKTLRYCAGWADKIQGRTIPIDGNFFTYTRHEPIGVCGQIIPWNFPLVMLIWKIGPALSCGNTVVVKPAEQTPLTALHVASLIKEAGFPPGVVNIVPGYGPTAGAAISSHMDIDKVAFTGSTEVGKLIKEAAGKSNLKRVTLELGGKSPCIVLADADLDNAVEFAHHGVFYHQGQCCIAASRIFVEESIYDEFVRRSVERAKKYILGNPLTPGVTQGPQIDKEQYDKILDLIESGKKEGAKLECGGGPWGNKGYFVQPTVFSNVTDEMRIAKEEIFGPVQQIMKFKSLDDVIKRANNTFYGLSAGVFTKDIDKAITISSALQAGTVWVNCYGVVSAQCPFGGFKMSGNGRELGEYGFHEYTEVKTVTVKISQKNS
# Assay: qHTS Assay for Inhibitors of Aldehyde Dehydrogenase 1 (ALDH1A1);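 as to activity, negative = inhibition: plate controls were no enzyme wells and a reference inhibitor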
# Settings: Purified ALDH1A1, NADH fluorescence, propionaldehyde substrate; series mostly up to 75.3 µM
# Potency is read from the fitted curve at half-maximal effect; tags tell the direction and shape of the fitted curve.
SMILES,Potency,"activity, negative = inhibition"
CC(OC(=O)CCC(=O)c1cccs1)C(=O)Nc1ccccc1[N+](=O)[O-] (stereo unspecified),"inconclusive [inhibitor, single point]",
COc1ccc(CCN2C(=O)CC(N3CCOCC3)C2=O)cc1OC (stereo unspecified),"inconclusive [inhibitor, single point]",
Cc1c(C(=O)N2CCc3ccccc32)oc2c1C(=O)CC(C)(C)C2,"inconclusive [inhibitor, single point]",
O=c1sc2ccccc2c(=O)n1Cc1ccccc1F,"inconclusive [inhibitor, single point]",
Cc1ccc(S(=O)(=O)Nc2ccccc2C(=O)c2ccc(C)c(C)c2)cc1,"inconclusive [inhibitor, single point]",
Cc1ccc(NC(=O)CN(C)S(=O)(=O)c2cccs2)cc1F,inactive,
O=C(CCc1nc2ccccc2[nH]c1=O)OCc1ccc(S(=O)(=O)N2CCOCC2)cc1,"inconclusive [inhibitor, partial curve]",
O=C(CN1CCN(c2ccc(O)cc2)CC1)Nc1ccc2c(c1)OCCO2,active: 9.46 µM,
COc1ccc(Cl)cc1NC(=O)Cn1c(NCCO)nc2ccccc21,inactive,
Cc1ccc(-c2noc(CN3CCN(c4ccccc4F)CC3)n2)cc1,active: 11.2 µM,
COC(=O)c1ccc(-c2n[nH]c(=O)c3ccccc23)cc1,inactive,
COc1ccc(C2C(C(=O)NCCN(C)C)c3ccccc3C(=O)N2C)cc1OC (stereo unspecified),inactive,
CC1CCN(CCCOc2ccc(Cl)cc2Br)CC1,"inconclusive [inhibitor, single point]",
O=C(CSc1nnc(-c2cccnc2)n1Cc1ccco1)c1ccc(Cl)cc1,inactive,
Cn1cnc(S(=O)(=O)NCc2ccccc2)c1,inactive,
CCCCn1c(SCN2C(=O)c3ccccc3C2=O)nc2cc(S(N)(=O)=O)ccc21,active: 28.2 µM,
CCOc1[nH]n(-c2ccccc2)c(=O)c1C=Nc1ccc(OC)cc1,"inconclusive [inhibitor, single point]",
Cc1coc2cc3oc(=O)cc(C)c3cc12,"inconclusive [inhibitor, single point]",
COc1cc(Cl)c(C)cc1NC(=O)CSc1nnc(CCC(=O)O)c(=O)[nH]1,"inconclusive [inhibitor, single point]",
C=CCN(c1ccccc1C(=O)O)S(=O)(=O)c1ccc(C)cc1,"inconclusive [inhibitor, partial curve]",
Cc1ccc2nc(NC(=O)CSCC(=O)OCC(=O)c3ccc(Br)cc3)sc2c1,"inconclusive [inhibitor, single point]",
Cc1ccc(-c2nc3ccccc3s2)cc1NC(=S)NC(=O)c1ccccc1,active: 10 µM,
CC(NC(=O)c1nn(C)c(=O)c2ccccc12)c1ccc(F)cc1 (stereo unspecified),inactive,
Cc1ccc(Cl)cc1-n1c(=O)cc(N2CC(C)OC(C)C2)[nH]c1=O (stereo unspecified),"inconclusive [inhibitor, single point]",

SMILES,Potency,"activity, negative = inhibition"
Cc1cccc(NC(=S)N(Cc2ccc(Cl)cc2)Cc2ccc(C(=O)O)cc2)c1,"inconclusive [inhibitor, single point]",
O=c1c2ccccc2n(Cc2cccc(F)c2)c(=O)n1C1CCCC1,"inconclusive [inhibitor, single point]",
COc1cccc(C(=O)CSc2nnc(CNS(=O)(=O)c3ccc(C)cc3)n2C)c1,"inconclusive [inhibitor, single point]",
COc1ccc(OC)c(S(=O)(=O)n2cnc3cc(C)c(C)cc32)c1,"inconclusive [inhibitor, single point]",
CCOC(=O)c1ccc(NC(=O)CC2C(=O)OCCN2CC)cc1 (stereo unspecified),active: 1.41 µM,
O=C(CC12CC3CC(CC(C3)C1)C2)NC(=S)NCc1ccco1,"inconclusive [inhibitor, partial curve, poor fit]",
C/C(=N\NC(=O)c1cccnc1)c1ccc(C)c([N+](=O)[O-])c1,"inconclusive [inhibitor, partial curve]",
COc1cccc(S(=O)(=O)Nc2cccc(C(=O)N3CCOCC3)c2)c1,active: 14.1 µM,
CC(CC(=O)Nc1ncc([N+](=O)[O-])s1)c1ccccc1 (stereo unspecified),"inconclusive [inhibitor, single point]",
O=S(=O)(c1ccccc1)N1CCC2(CCCN(Cc3cc(C(F)(F)F)cc(C(F)(F)F)c3)C2)CC1,"inconclusive [inhibitor, single point]",
COc1ccc(NC(=S)NNC(=S)Nc2cccc(C(F)(F)F)c2)cc1,active: 0.447 µM,
CCc1nc2oc3cc(OC)ccc3c(=O)c2c(=O)n1Cc1ccco1,"inconclusive [inhibitor, single point]",
CC(NC1CCCC1)c1ccccc1 (stereo unspecified),inactive,
O=C(NCc1ccccn1)c1c(O)c2cccc3c2n(c1=O)CC3,"inconclusive [inhibitor, partial curve]",
CC(=O)NCCOc1nc(N(C)C)nc(N2CCCCC2)n1,"inconclusive [inhibitor, single point]",
NC(=O)COc1ccc2c3c(c(=O)oc2c1)CCCCC3,"inconclusive [inhibitor, partial curve]",
CCN(CC)C(=O)C1CCCN(C(=O)Nc2ccc3nsnc3c2)C1 (stereo unspecified),"inconclusive [inhibitor, single point]",
Cc1ccsc1C1Nc2ccc3ncccc3c2C2=C1C(=O)CCC2 (stereo unspecified),"inconclusive [inhibitor, single point]",
O=S(=O)(O)c1ccc(-c2nnc(-c3ccccn3)nc2-c2ccc(S(=O)(=O)O)o2)o1,"inconclusive [inhibitor, single point]",
CCOc1ccc(NC(=O)C(Cc2ccccc2)N2C(=O)c3cccc4cccc(c34)C2=O)cc1 (stereo unspecified),inactive,
Cc1ccc2nc(/C(C#N)=C\c3ccc(N4CCCCC4)c([N+](=O)[O-])c3)[nH]c2c1,"inconclusive [inhibitor, partial curve]",
O=C(Cn1c(COc2ccccc2)nc2ccccc21)Nc1cc(Cl)c(Cl)cc1Cl,"inconclusive [inhibitor, single point]",
COC(=O)CSc1nc2c(c(-c3ccco3)c1C#N)CCCC2,active: 12.6 µM,
CCOC(=O)CCc1c(C)nc2cc(-c3ccccc3OC)[nH]n2c1=O,"inconclusive [inhibitor, single point]",

SMILES,Potency,"activity, negative = inhibition"
CC(NC(=O)C(=O)NCC1CCCO1)c1ccccc1 (stereo unspecified),inactive,
Cc1cc(O)c(C(C)C)cc1N=C1CSC(=O)N1,active: 12.6 µM,
CCCCCCCC/C=C/CCCCCCCCOP(=O)([O-])OCC[N+](C)(C)C,inactive,
O=C(CN1CC(=O)Nc2ccccc21)NCCc1ccc(Cl)cc1Cl,"inconclusive [inhibitor, full curve]",
O=C(Nc1nc2ccc(S(=O)(=O)N3CCCC3)cc2s1)C1CCCCC1,active: 8.91 µM,
COC(=O)Cc1c(C)c2c(OCc3nn[nH]n3)cc(C)cc2oc1=O,"inconclusive [inhibitor, partial curve]",
O=C(CN1C(=O)COc2ccccc21)Nc1ccc(F)cc1,active: 22.4 µM,
Cn1nccc1C(=O)Nc1sc2c(c1C(N)=O)CCCC2,"inconclusive [inhibitor, single point]",
Cc1cc(=O)oc2cc(OCc3ccc(C(=O)OCC(=O)Nc4ccc(N(C)C)cc4)cc3)ccc12,"inconclusive [inhibitor, single point]",
O=S(=O)(c1ccccc1)N1CCN(Cc2cccc(Cl)c2)CC1,"inconclusive [inhibitor, single point]",
N[C@@H](CSC1(c2ccc(Cl)cc2)c2ccccc2-c2ccccc21)C(=O)O,,inactive: 9.13% [at 13.5 µM]
COc1ccc(-c2nc(-c3ccc4c(c3)OCO4)[nH]c2-c2ccc(OC)cc2)cc1,inactive,
CC(=O)OCC(OC(C)=O)C(OC(C)=O)C(OC(C)=O)C(OC(C)=O)C(COC(C)=O)OC(C)=O (stereo unspecified),inactive,
Nc1ccc2nn(-c3cccc4ccccc34)nc2c1,"inconclusive [inhibitor, partial curve]",
CC1(C)CC(NC(=O)CC2CCCCC2)CC(C)(C)N1,inactive,
FC(F)(F)c1ccccc1-c1nccc(NCc2cccs2)n1,"inconclusive [inhibitor, partial curve]",
CCOC(=O)c1cc(CC)sc1NC(=O)c1ccc2c(c1)OCCO2,"inconclusive [inhibitor, partial curve]",
CCOC(=O)Cc1nn(Cc2ccccc2)c(=O)c2ccccc12,"inconclusive [inhibitor, single point]",
O=c1cc(-c2ccc(O)c(-c3c(O)cc(O)c4c(=O)cc(-c5ccc(O)cc5)oc34)c2)oc2cc(O)cc(O)c12,"inconclusive [inhibitor, single point]",
COc1ccc2c(c1OC)C(=O)OC2Nn1cncn1 (stereo unspecified),"inconclusive [inhibitor, single point]",
CCOP(=O)(c1ccccc1)c1nc(-c2ccccc2C)oc1N1CCCCC1 (stereo unspecified),inactive,
O=C(NCC1CCCO1)c1ccccc1NC(=O)c1cccc2ccccc12 (stereo unspecified),"inconclusive [inhibitor, single point]",
Cc1cc(C)nc(NC(=O)C(c2ccccc2)c2ccccc2)c1,active: 14.1 µM,
